# Measurements: the supplement of paper PMC12217912
# The list shows a part of the results. Sequences were assembled here from the parent chain. Values near 0.05 are background.
# B1: TEV protease; numbered along this chain (parent)
# chain: MGESLFKGPRDYNPISSSICHLTNESDGHTTSLYGIGFGPFIITNKHLFRRNNGTLVVQSLHGVFKVKDTTTLQQHLVDGRDMIIIRMPKDFPPFPQKLKFREPQREERICLVTTNFQTKSMSSMVSDTSCTFPSGDGIFWKHWIQTKDGQCGSPLVSTRDGFIVGIHSASNFTNTNNYFTSVPKNFMELLTNQEAQQWVSGWRLNADSVLWGGHKVFMVKPEEPFQPVKEATQL
# Variants of: B1
# Assay: raw area under fraction-flipped curve 0-4 h after induction (AUC4h, not background-subtracted), DNA-recorder readout of cleavage of the substrate (dimensionless); higher = more cleavage of the substrate by the protease variant
# Details: temperature: 34 °C; time window: 0-4 h after rhamnose induction
# Experimental: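 In vivo DNA recorder in E. coli TOP10(DE3) ΔrhaA at 34 °C. Each TEVp single-site mutant (parent TEVp 0) is paired with a single-site variant of the 7-mer TEVs (canonical ENLYFQ|S). The substrate sits between flexible linkers in a Bxb1-sfGFP-TEVs-SsrA fusion, so cleavage stabilises Bxb1 and speeds flipping of a recombination array, read by NGS. The value is the raw area under the fraction-flipped curve over 0-4 h after rhamnose induction (AUC4h), with ≥20 reads per time point. It is not background-subtracted; inactive controls average about 0.047.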
# 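Also: Bxb1 expression induced with 0.2% (w/v) L-rhamnose at OD600 near 0.5, cultures sampled hourly, flipped fraction per protease–substrate barcode pair counted by paired-end Illumina sequencing.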
Variant,area with substrate ENLYFAS,area with substrate ENLYFCS,area with substrate ENLYFDS,area with substrate ENLYFES,area with substrate ENLYFFS,area with substrate ENLYFGS,area with substrate ENLYFHS,area with substrate ENLYFIS,area with substrate ENLYFKS,area with substrate ENLYFLS,area with substrate ENLYFMS,area with substrate ENLYFNS,area with substrate ENLYFPS,area with substrate ENLYFRS,area with substrate ENLYFSS,area with substrate ENLYFTS,area with substrate ENLYFWS,area with substrate ENLYFYS,area with substrate ENLYFVS
N45Y,0.0464,0.059,0.0694,0.0657,0.0586,0.0619,0.0588,0.0581,0.0525,0.0568,0.0583,0.0506,0.0637,0.0601,0.0657,0.0767,0.0605,0.0607,–
H47G,0.0715,0.0487,0.0625,0.052,0.0674,0.0454,0.0598,0.0587,0.0599,0.0715,0.0567,0.0542,0.0594,0.0582,0.0562,0.0586,0.0641,0.0528,0.053
L48D,0.0557,0.0674,0.0606,0.0744,0.0684,–,0.0462,0.0537,0.0634,0.0583,0.0789,0.0685,0.0599,0.0614,0.0603,0.0622,0.0549,0.0827,0.0574
L48P,0.0567,0.0564,–,–,0.0824,0.0565,0.0549,–,–,0.0693,0.045,0.06,0.0561,–,0.0703,0.0557,0.056,0.0461,0.0574
L48T,0.0613,0.068,–,0.0548,0.0735,0.0578,0.0582,0.0575,0.0814,–,0.0619,–,0.0617,0.0585,–,0.0594,0.0523,0.0529,0.0418
R51I,0.0427,0.0661,0.0701,0.0659,0.0712,–,0.0413,0.0529,0.0624,0.0581,0.0677,–,0.0662,–,–,0.0535,0.0523,0.0495,0.067
N52G,0.063,0.0474,0.0572,0.0587,0.0336,–,0.0585,0.0564,0.048,–,0.0596,0.0599,0.0591,–,0.0605,0.0627,–,0.0636,–
T55Q,0.0597,0.0735,0.0345,0.0666,0.0656,–,–,0.0569,–,0.0712,0.0658,0.0589,0.0609,0.0627,0.0861,0.0389,0.0552,0.0549,0.0522
T55V,0.0551,0.0481,0.0575,0.0771,0.0746,0.0664,0.0769,0.0657,0.0855,0.0471,0.0575,0.0645,0.0623,–,0.0626,0.0495,0.0594,0.0583,0.0435
L56F,0.0531,0.0536,0.072,0.0507,0.0687,–,0.0596,0.0562,0.0618,0.0383,0.062,0.0649,0.0534,0.0474,0.0612,0.06,–,0.053,0.0638
L56G,0.031,0.0435,0.0567,0.0562,0.0541,–,0.0431,0.0415,0.0433,–,0.0344,0.052,0.0553,–,0.0454,0.0192,–,0.0575,0.0468
L56R,0.0485,0.0328,0.0446,0.04,0.0264,0.0553,–,0.0399,0.0458,–,0.0378,0.0477,0.0539,0.0527,–,–,–,0.2,0.0539
L61C,0.0561,0.0585,0.0637,0.0647,0.0664,0.0596,0.0536,0.0608,0.0709,0.0512,0.0649,0.04,0.0765,0.0589,0.0734,0.0544,0.0425,0.0606,0.0611
G63W,0.0454,0.0531,0.0444,0.0624,0.0563,0.0418,0.0539,0.0448,0.0616,0.062,0.0666,0.0535,0.092,0.0602,–,0.0543,0.0548,0.0498,–
V64A,0.0563,–,0.0772,–,0.0655,0.0852,–,–,0.0679,–,0.0734,0.0763,0.0596,0.0656,–,0.0756,–,0.0542,0.064
V64H,0.0639,0.064,–,–,0.0688,–,–,–,–,–,–,–,0.0483,–,–,–,0.0655,–,–
V64M,0.055,0.0584,0.0653,0.0625,0.0861,0.0681,–,0.0536,0.0581,–,0.0789,0.0775,0.0623,0.0668,–,0.0543,–,0.0537,0.0635
F65A,0.0628,0.0543,0.0646,0.0606,0.0504,0.0523,–,0.048,0.0687,–,0.0724,0.0545,0.0487,0.0525,0.0556,0.0685,0.0656,0.0474,0.0536
K68R,0.0602,–,0.0618,0.0572,0.0714,–,–,–,–,–,0.0592,–,0.0574,0.0555,0.0504,–,0.0582,–,0.0568
D69P,0.0506,–,0.055,0.0626,0.0703,0.0584,–,0.0586,0.0724,–,0.0665,0.0661,0.0579,0.0546,0.0777,0.0596,0.0564,0.0569,0.064
T72E,0.0637,–,–,0.0743,–,–,–,0.0414,–,–,–,–,–,0.0548,–,0.074,–,–,0.0458
T72F,0.0599,0.0658,0.0568,–,0.0691,–,0.0532,0.0425,0.0725,0.0501,–,0.0565,0.0591,0.0582,–,0.0479,0.0534,0.0644,0.0491
T72K,0.0677,0.0697,0.0658,0.0632,0.0701,0.0569,–,0.0554,0.0642,0.056,0.0638,0.0638,0.0591,0.0635,–,0.0656,0.0575,0.0561,0.062
